“And” between values parts separate entries of the source, which are not always exact repeats. Equal values may be shown once. The campaign covered roughly 420,000 compounds. About 50,000 (12%) were called active. Inconclusive results, whose numbers are uncertain, are shown with a selection of clear calls. The call rests on the fitted dose curve; in most records, active means well fitted inhibition curve with a large enough effect; inconclusive means small, poorly fitted or top-dose-only effect; inactive means flat fitted curve, though single readings scatter. Potencies beside an inconclusive call are fits to weak or partial responses and may not hold up.
Assay: qHTS for Inhibitors of human tyrosyl-DNA phosphodiesterase 1 (TDP1): qHTS in cells in presence of CPT; further: nearly all actives have a fitted effect of over 55% in size
Conditions: chicken DT40 Tdp1-/-;hTDP1 cells + 20 nM CPT, ATP luminescence, 48 h; activity change, negative = growth inhibition: at 46.2 µM (top of the series) unless noted
Method in brief: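 Chicken DT40 Tdp1-/- cells stably complemented with human TDP1 were seeded at 400 cells/well in medium containing 20 nM camptothecin, exposed to pin-transferred compounds, and grown at 37 °C for at least 48 hr. Viability was read as ATP luminescence.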
On the % scale 0 is the no-effect control and ±100 the full control effect; potency means the concentration at half of the fitted maximal effect; tags describe the fitted curve by direction and shape.

SMILES | activity change, negative = growth inhibition | Potency
Cc1cccc(N/C(=N\S(=O)(=O)c2ccccc2)C(F)(F)F)c1 | inactive: -23.7% | 
O=C(Oc1ccccc1C(=S)N1CCOCC1)c1ccc([N+](=O)[O-])cc1[N+](=O)[O-] | inactive: -11.9% | 
CCOc1ccc(Cl)cc1CNCCCSc1nnnn1C | inactive: -26.5% | 
COc1ccccc1CCNC(=O)CNC(=O)Cc1cccc2ccccc12 |  | inactive and inconclusive: 28.2 µM [inhibitor, single point]
C[N+](C)(CCCCCC[N+](C)(C)C1c2ccccc2-c2ccccc21)C1c2ccccc2-c2ccccc21 |  | inconclusive: 29.9 µM [inhibitor, single point]
O=C(Nc1ccc(S(=O)(=O)N2CCOCC2)cc1)c1ccc(S(=O)(=O)N2CCOCC2)cc1 | inactive: -5.09% | 
CCc1nnc(NC(=O)c2ccc3ccccc3n2)s1 |  | inconclusive: 20.6 µM [inhibitor, single point]
O=C(Nc1ccccc1C(F)(F)F)c1nc(S(=O)(=O)Cc2ccccc2F)ncc1Cl |  | active: 0.562 µM
COc1ccc(-c2cc(C(=O)Nc3cc(OC)c(OC)c(OC)c3)[nH]n2)c(C)c1 |  | active: 23.1 µM
COc1ccc(CN(Cc2cccn2C)S(=O)(=O)c2ccc(F)cc2)cc1 | inactive: -5.31% | 
CCC(CC)C(=O)Nc1nnc(SCC(=O)NC(C)(C)C)s1 | inactive: -2.31% | 
O=S(OCCN1CCCC1)C(c1ccccc1)c1ccccc1 (configuration not stated) | inconclusive: -32.1% [inhibitor] | 
O=C(CCCN1C(=O)c2ccccc2C1=O)N1CCN(c2ccccn2)CC1 | inactive: 0.137% | 
Cc1cccn2c(=O)c3cc(C(=O)NC4CCCCC4)n(C)c3nc12 |  | active: 4.61 µM
Cn1cc(S(=O)(=O)N2CCN(c3cccc(Cl)c3)CC2)c(=O)n(C)c1=O | inactive: 5.98% | 
Cc1nonc1CN(C)C(=O)C1CC12CCN(C(=O)/C=C/c1cccc(Cl)c1)CC2 (configuration not stated) |  | inconclusive: 16.4 µM [inhibitor, single point]
CCCCn1nnnc1C(c1ccccc1)N1CCN(c2ncccc2C(F)(F)F)CC1 (configuration not stated) |  | inconclusive: 20.6 µM [inhibitor, single point]
Cc1cccc2cc(CN(CC3CCCO3)C(=S)NCc3ccco3)c(=O)[nH]c12 (configuration not stated) |  | inconclusive: 29.1 µM [inhibitor, single point]
Cc1ccc(Cn2c(CCNc3nc(-c4ccc(Cl)c([N+](=O)[O-])c4)cs3)nc3cc(C(=O)NCCCO)ccc32)cc1 |  | active: 10.3 µM
Cn1c(SCC(=O)Nc2nnc(-c3ccccc3)o2)nnc1C1CC1 | inactive: 6.78% | 
N#C/C(=C\c1coc2ccccc2c1=O)C(N)=S |  | inconclusive: 29.1 µM [inhibitor, single point]
CCCCCOC(=O)Nc1nc(=O)n([C@@H]2O[C@H](C)[C@@H](O)[C@H]2O)cc1F | inactive: -9.89% | 
C/C(=N/NC(=O)CNc1ccc(C)cc1)c1ccc(Br)s1 |  | active: 18.4 µM
Cc1ccc(CN(C(=O)COc2ccccc2[N+](=O)[O-])c2ccccn2)cc1 |  | inconclusive: 23.1 µM [inhibitor, single point]

SMILES | activity change, negative = growth inhibition | Potency
N#Cc1c(Nc2ccc(Cl)cc2)s[nH]c1=O |  | active: 14.6 µM
O=C(Oc1cccc(/C=N/Nc2nc(Nc3ccccc3)nc(N3CCOCC3)n2)c1)c1ccco1 |  | active: 20.6 µM
COc1cccc(NC(=S)N2CCC(NC(=O)c3ccco3)CC2)c1 | inactive: 11.1% | 
C=CCN(c1ccc(C(=O)N2CCCC2)cc1)S(C)(=O)=O | inactive: 4.14% | 
COc1ccc2cc(/C=C/C(=O)N3CCN(CC(=O)N4CCCCCC4)CC3)ccc2c1 |  | inconclusive: 29.1 µM [inhibitor, single point]
CC(C)(C)c1ccc(C(=O)c2c[nH]c(C(=O)NCCCN3CCOCC3)c2)cc1 |  | inconclusive: 18.4 µM [inhibitor, single point]
Cc1cccc(OCC(=O)NCCc2nc3ccccc3[nH]2)c1C |  | inconclusive: 23.1 µM [inhibitor, single point]
Cc1ncoc1C(=O)N1CCCC(C(=O)Nc2cccc(-c3ccc(F)cc3)c2)C1 (configuration not stated) |  | inconclusive: 23.1 µM [inhibitor, partial curve, poor fit]
CCOc1ccc(NS(=O)(=O)c2ccc(NC(=S)NC(=O)CC(C)C)cc2)cc1 |  | inconclusive: 16.4 µM [inhibitor, single point]
CC1(C)CC(=O)c2c(O)cc(OCC(=O)Nc3ccc(CCO)cc3)cc2O1 |  | active: 14.6 µM
CS(=O)(=O)c1ccc2nc(NC(=O)CC3CCCC3)sc2c1 |  | inconclusive: 29.1 µM [inhibitor, single point]
COCCNC(=O)C(c1ccco1)N(C(=O)Cn1nnc2ccccc21)c1cc(C)ccc1C (configuration not stated) |  | inconclusive: 16.4 µM [inhibitor, single point]
CCOC(=O)C1=CN(Cc2cccc(F)c2)S(=O)(=O)N(CC)C1CCc1ccccc1 (configuration not stated) |  | inconclusive: 29.1 µM [inhibitor, single point]
Cc1nn(-c2ccccc2)c(N2CCCC2)c1C=O |  | inconclusive: 9.2 µM [inhibitor, partial curve]
COc1ccccc1CNC(=O)COC(=O)c1ccccn1 | inactive: 29.9% | 
CCCN(CCC)CCNC(=O)CN1C(=O)COc2ccc(S(=O)(=O)N3CCOCC3)cc21 |  | inactive
Cc1onc(-c2c(Cl)cccc2Cl)c1C(=O)NC1CCCCC1 |  | inconclusive: 23.1 µM [inhibitor, single point]
O=C(NCC(=O)N1CCN(C(c2ccccc2)c2ccccc2)CC1)c1ccccc1F |  | inconclusive: 29.1 µM [inhibitor, single point]
CN1/C(=C\C=C2\N=C(c3ccc(F)cc3)OC2=O)C(C)(C)c2ccccc21 |  | inconclusive: 29.1 µM [inhibitor, single point]
COC(=O)Cc1nnc(SCC(=O)Nc2ccccc2)c2ccccc12 |  | active: 18.4 µM
CCOC(=O)C1=C(C)N(C)C(=S)NC1c1cc(OC)ccc1OC (configuration not stated) |  | inconclusive: 18.4 µM [inhibitor, single point]
C[C@H]1[C@H]2CC[C@H]3C4CC=C5C[C@@H](N(C)C)CC[C@]5(C)C4CC[C@]23CN1C (some centres not stated) |  | inconclusive: 29.9 µM [inhibitor, single point]
CCOc1ccc(-n2nc(CO)c(C(=O)NCc3ccccn3)n2)cc1 |  | inconclusive: 23.1 µM [inhibitor, single point]
CCc1cc2c(=O)n(Cc3ccco3)c(SCC(=O)NCC3CCCO3)nc2s1 (configuration not stated) |  | active: 14.6 µM

SMILES | activity change, negative = growth inhibition | Potency
Cc1ccc(C)c(NC(=O)c2sc(Cl)nc2-c2ccccc2)c1 |  | inconclusive: 29.1 µM [inhibitor, single point]
CCOC(=O)c1cc(CC)sc1/N=C/C1C(=O)CC(C)(C)CC1=O |  | inconclusive: 13 µM [inhibitor, partial curve, poor fit]
C/C(=N\NC(=O)c1ccc(NS(=O)(=O)c2cccs2)cc1)c1ccc2c(c1)OCO2 | inconclusive: -3.1% [inhibitor] | 
COc1cc(NC(=O)C2=C(N3CCOCC3)/C(=C/c3ccc(Cl)cc3)CC2)cc(OC)c1OC |  | active: 6.51 µM
O=C(c1ccccc1-n1cccn1)N1CCOc2c(cc(-c3ncc(C(F)(F)F)cc3Cl)cc2OCC2CCCO2)C1 (configuration not stated) |  | inconclusive: 29.1 µM [inhibitor, single point]
Cc1cnc(C)c(-c2cccc3c2OC(CNC(=O)CN2C(=O)c4ccccc4C2=O)C3)n1 (configuration not stated) | inactive: 12.5% | 
Cc1ccc(OCCCCn2cnc3ccccc32)cc1 |  | active: 16.4 µM
NC(=O)COC(=O)c1cc(S(=O)(=O)N2CCN(c3ccccc3)CC2)ccc1Cl | inactive: -7.08% | 
CN(C)c1ccc(/C=[N+](\[O-])C2N(c3ccccc3)C(=S)SC2(C)C)cc1 (configuration not stated) |  | inconclusive: 16.4 µM [inhibitor, partial curve]
O=C(Cc1ccccc1)Nc1nonc1NC(=O)c1ccccc1 |  | inconclusive: 16.4 µM [inhibitor, single point]
CCc1cccc(C)c1NC(=O)c1ccc(CN2CCc3ccccc3C2)cc1 |  | inconclusive: 23.1 µM [inhibitor, partial curve]
Cc1cc(/C=C2/NC(=O)NC2=O)c(C)n1-c1ccncc1 | inactive: 14.5% | 
N#CCc1nc2ccc(S(=O)(=O)N3CCOCC3)cc2s1 | inactive: -22.9% | 
COc1ccc(NC(=S)N(CCCN2CCCC2)Cc2ccco2)cc1 | inactive: 1.8% | 
CS(=O)(=O)c1ccc(C(=O)OCC(=O)NNC(=O)COc2ccc(Cl)cc2)cc1 | inactive: 6.33% | 
CCOC(=O)c1c(NC(=O)CSc2ncnc3ccccc23)sc(C)c1C |  | inconclusive: 14.6 µM [inhibitor, partial curve, poor fit]
Cc1cc(C)n(CCNC(=O)CC2C(=O)NCCN2Cc2ccccc2C(F)(F)F)n1 (configuration not stated) | inactive: 11.4% | 
CCn1c(SCc2ccc(Cl)cc2)nnc1-c1ccccc1 |  | inconclusive: 29.1 µM [inhibitor, single point]
O=C(CNC(=O)C1CCCCC1)OCC(=O)c1cccc(Cl)c1 |  | inactive
CCN(CC)S(=O)(=O)c1ccc2c(c1)nc(CN(C)C(=O)Nc1ccc(F)cc1)n2C |  | inconclusive: 20.6 µM [inhibitor, partial curve]
C=CCC[C@@H](Cc1ccc(F)cc1)C(=O)OCCNC(=O)[C@@H](CC=C)CC(=O)N[C@H](CO)Cc1ccccc1 |  | active: 20.6 µM
CCOC(=O)[C@]12CCCC=C1N(Cc1ccco1)C(=O)[C@H](CC(=O)NCCCCc1ccccc1)C2 |  | active: 23.1 µM
Cc1ccc(-n2c(N)c(C(N)=O)sc2=S)c(C)c1 |  | inconclusive: 29.1 µM [inhibitor, single point]
COc1cccc(-c2cc(C(=O)NCCCN3CCOCC3)no2)c1 | inactive: 19.9% | 

— PubChem BioAssay AID686979 (National Center for Advancing Translational Sciences (NCATS), 2013)
